Consider 32 sequences from article PMC12820563, “FoxP3 forms a head-to-head dimer in vivo and stabilizes its multimerization on adjacent microsatellites”.

The list shows a part of the results.

This experiment concerns the target T1, MBP-FoxP1dN (Mus musculus, UniProt P58462 326-579).
T1 sequence: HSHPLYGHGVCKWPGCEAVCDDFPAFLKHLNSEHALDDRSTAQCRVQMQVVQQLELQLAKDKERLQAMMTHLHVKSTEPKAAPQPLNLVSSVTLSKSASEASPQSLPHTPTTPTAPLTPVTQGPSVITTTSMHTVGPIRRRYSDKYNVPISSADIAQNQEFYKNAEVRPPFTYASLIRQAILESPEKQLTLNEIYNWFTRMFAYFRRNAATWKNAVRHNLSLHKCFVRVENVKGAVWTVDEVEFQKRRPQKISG
Description: PD-seq (MBP pull-down with sequencing); 20 mM Tris-HCl pH 7.5, 100 mM NaCl, 1.5 mM MgCl2, 0.4 uM protein, 0.1 uM dsDNA library, 30 min, room temperature, amylose pull-down; high values mean tight binding. Conditions: protein: recombinant; tags: His6-MBP; chain copies: 2; dsDNA, one strand shown. The procedure, abridged:
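Protein and DNA were mixed at 0.4 µM and 0.1 µM and held for 30 min at room temperature in Tris pH 7.5 buffer with NaCl and MgCl2; the protein was a His6-MBP-tagged, N-terminally truncated mouse FoxP3 or FoxP1 fragment from E. coli, and the DNA a Klenow-filled double-stranded degenerate library. Amylose resin captured the complexes, which were washed three times. Binding is read as reads-per-million enrichment of pull-down versus input after Illumina sequencing, with replicates pooled.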
In the case of “GATGATTGTTCTCCCAGCTGATGAATTATCTTTATCGAGTAAACAAATTTTCCTAATCTTTCTGTTCAAGCGCCATCTAC”, the binding signal is 1.09 RPM ratio (pull-down/input).

Consider “GATGATTGTTCTCCCAGCTGATGAATTTCTTCCGTCGAGTAAACAAATTTTCCTAATCTTTCTGTTCAAGCGCCATCTAC”, for which the binding signal is 0.835 RPM ratio (pull-down/input). In the case of “GATGATTGTTCTCCCAGCTGATGAATTAAGGCTATCGAGTAAACAAATTTTCCTAATCTTTCTGTTCAAGCGCCATCTAC” it was 0.903 RPM ratio (pull-down/input); in that of “GATGATTGTTCTCCCAGCTGATGAATTACAACATTCGAGTAAACAAATTTTCCTAATCTTTCTGTTCAAGCGCCATCTAC”, 1.71 RPM ratio (pull-down/input).

On to “GATGATTGTTCTCCCAGCTGATGAATTTGCCTTGTCGAGTAAACAAATTTTCCTAATCTTTCTGTTCAAGCGCCATCTAC”, for which the binding signal was 0.889 RPM ratio (pull-down/input). In the case of “GATGATTGTTCTCCCAGCTGATGAATTTGTAGGTTCGAGTAAACAAATTTTCCTAATCTTTCTGTTCAAGCGCCATCTAC” it was 1.02 RPM ratio (pull-down/input); in that of “GATGATTGTTCTCCCAGCTGATGAATTGATTGGATCGAGTAAACAAATTTTCCTAATCTTTCTGTTCAAGCGCCATCTAC”, 1.08 RPM ratio (pull-down/input); in that of “GATGATTGTTCTCCCAGCTGATGAATTAACCTAATCGAGTAAACAAATTTTCCTAATCTTTCTGTTCAAGCGCCATCTAC”, 1.05 RPM ratio (pull-down/input). Turning to “GATGATTGTTCTCCCAGCTGATGAATTACATACGTCGAGTAAACAAATTTTCCTAATCTTTCTGTTCAAGCGCCATCTAC”, the binding signal is 1.34 RPM ratio (pull-down/input). Consider “GATGATTGTTCTCCCAGCTGATGAATTAACTTGATCGAGTAAACAAATTTTCCTAATCTTTCTGTTCAAGCGCCATCTAC”, for which the binding signal is 0.84 RPM ratio (pull-down/input). In the case of “GATGATTGTTCTCCCAGCTGATGAATTAGTTTGTTCGAGTAAACAAATTTTCCTAATCTTTCTGTTCAAGCGCCATCTAC” it was 1.26 RPM ratio (pull-down/input). In the case of “GATGATTGTTCTCCCAGCTGATGAATTATGATGGTCGAGTAAACAAATTTTCCTAATCTTTCTGTTCAAGCGCCATCTAC” it was 1.1 RPM ratio (pull-down/input); in that of “GATGATTGTTCTCCCAGCTGATGAATTAGTATTTTCGAGTAAACAAATTTTCCTAATCTTTCTGTTCAAGCGCCATCTAC”, 2.28 RPM ratio (pull-down/input); in that of “GATGATTGTTCTCCCAGCTGATGAATTGTAGCCGTCGAGTAAACAAATTTTCCTAATCTTTCTGTTCAAGCGCCATCTAC”, 0.897 RPM ratio (pull-down/input). On to “GATGATTGTTCTCCCAGCTGATGAATTAGCCCTCTCGAGTAAACAAATTTTCCTAATCTTTCTGTTCAAGCGCCATCTAC”, for which the binding signal was 0.798 RPM ratio (pull-down/input). In the case of “GATGATTGTTCTCCCAGCTGATGAATTCGGGCTCTCGAGTAAACAAATTTTCCTAATCTTTCTGTTCAAGCGCCATCTAC” it was 0.695 RPM ratio (pull-down/input). Regarding “GATGATTGTTCTCCCAGCTGATGAATTGGGTGGGTCGAGTAAACAAATTTTCCTAATCTTTCTGTTCAAGCGCCATCTAC”, the binding signal was 0.83 RPM ratio (pull-down/input).

Consider “GATGATTGTTCTCCCAGCTGATGAATTGACGGCATCGAGTAAACAAATTTTCCTAATCTTTCTGTTCAAGCGCCATCTAC”, for which the binding signal was 1.16 RPM ratio (pull-down/input). In the case of “GATGATTGTTCTCCCAGCTGATGAATTCGAGTCGTCGAGTAAACAAATTTTCCTAATCTTTCTGTTCAAGCGCCATCTAC” it was 0.767 RPM ratio (pull-down/input).

Turning to “GATGATTGTTCTCCCAGCTGATGAATTTGCGTCCTCGAGTAAACAAATTTTCCTAATCTTTCTGTTCAAGCGCCATCTAC”, the binding signal was 1.07 RPM ratio (pull-down/input). For “GATGATTGTTCTCCCAGCTGATGAATTAATACGCTCGAGTAAACAAATTTTCCTAATCTTTCTGTTCAAGCGCCATCTAC”, the binding signal was 1.05 RPM ratio (pull-down/input).

As for “GATGATTGTTCTCCCAGCTGATGAATTTAACTCTTCGAGTAAACAAATTTTCCTAATCTTTCTGTTCAAGCGCCATCTAC”, the binding signal was 0.805 RPM ratio (pull-down/input). For “GATGATTGTTCTCCCAGCTGATGAATTGGGCATTTCGAGTAAACAAATTTTCCTAATCTTTCTGTTCAAGCGCCATCTAC” the value was 1 RPM ratio (pull-down/input).

For the sequence “GATGATTGTTCTCCCAGCTGATGAATTTATGGCCTCGAGTAAACAAATTTTCCTAATCTTTCTGTTCAAGCGCCATCTAC”, the binding signal is 0.966 RPM ratio (pull-down/input). For “GATGATTGTTCTCCCAGCTGATGAATTCTCCGACTCGAGTAAACAAATTTTCCTAATCTTTCTGTTCAAGCGCCATCTAC” the value was 0.775 RPM ratio (pull-down/input); for “GATGATTGTTCTCCCAGCTGATGAATTCTGACCGTCGAGTAAACAAATTTTCCTAATCTTTCTGTTCAAGCGCCATCTAC”, 0.835 RPM ratio (pull-down/input). For “GATGATTGTTCTCCCAGCTGATGAATTCACGGGCTCGAGTAAACAAATTTTCCTAATCTTTCTGTTCAAGCGCCATCTAC” the value was 0.759 RPM ratio (pull-down/input); for “GATGATTGTTCTCCCAGCTGATGAATTCAATACGTCGAGTAAACAAATTTTCCTAATCTTTCTGTTCAAGCGCCATCTAC”, 1.03 RPM ratio (pull-down/input). Take “GATGATTGTTCTCCCAGCTGATGAATTGATCCGTTCGAGTAAACAAATTTTCCTAATCTTTCTGTTCAAGCGCCATCTAC”: the binding signal is 0.928 RPM ratio (pull-down/input).

Take “GATGATTGTTCTCCCAGCTGATGAATTTCCGTTGTCGAGTAAACAAATTTTCCTAATCTTTCTGTTCAAGCGCCATCTAC”: the binding signal is 1.06 RPM ratio (pull-down/input). Take “GATGATTGTTCTCCCAGCTGATGAATTGACCCTTTCGAGTAAACAAATTTTCCTAATCTTTCTGTTCAAGCGCCATCTAC”: the binding signal is 0.95 RPM ratio (pull-down/input).

“GATGATTGTTCTCCCAGCTGATGAATTAATCCGTTCGAGTAAACAAATTTTCCTAATCTTTCTGTTCAAGCGCCATCTAC”: the binding signal was 0.923 RPM ratio (pull-down/input).
